Here are results for 93 sequences from PMC10726135.

This is one part of the list. At the low end of the ranking the order means little. Measured with an extract: partners may take part in the binding.

For the assay, the target named is T1, HNF4alpha2 (COS-7 nuclear extract) (UniProt P41235).
T1 sequence: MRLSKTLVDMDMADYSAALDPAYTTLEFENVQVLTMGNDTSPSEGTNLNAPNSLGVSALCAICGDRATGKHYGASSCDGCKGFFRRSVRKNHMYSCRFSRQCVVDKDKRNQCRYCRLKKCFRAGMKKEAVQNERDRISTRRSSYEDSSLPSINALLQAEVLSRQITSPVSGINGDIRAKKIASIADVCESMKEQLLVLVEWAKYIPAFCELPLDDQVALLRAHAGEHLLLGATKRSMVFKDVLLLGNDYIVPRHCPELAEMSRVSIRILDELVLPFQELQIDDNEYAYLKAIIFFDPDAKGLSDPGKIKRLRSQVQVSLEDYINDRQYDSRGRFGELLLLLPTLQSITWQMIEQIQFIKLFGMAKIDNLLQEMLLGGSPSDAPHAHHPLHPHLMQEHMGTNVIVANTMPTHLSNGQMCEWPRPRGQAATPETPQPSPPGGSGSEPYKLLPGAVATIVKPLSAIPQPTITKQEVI
Briefly: protein-binding microarray. The settings on record: COS-7 nuclear extract on double-stranded Agilent 4x180k PBM; binding buffer, salt, pH and temperature not given; high values mean tight binding; double strand, one strand shown; sequences stand for … in …GCCTAGGGAGATTAGAGTATCGGTCGA
Take CTTGAGGACAGGCCAAATCCAGTAAGGCAC: the binding signal (log2 normalized intensity) was -1.09.
For the sequence TCAGGGCCACGGGAAAACCTGACTGCGCTC, the binding signal (log2 normalized intensity) is -1.15.
With TGCATGCAAAAAGGCTGACCTTTGACTCTC, the binding signal (log2 normalized intensity) worked out at 7.57.
For CCACCTGGAATGTGCTCCCGACTGCTCCAC, the binding signal (log2 normalized intensity) was -1.24.
Regarding GCAAACCTGCCCTTTGCTCCAGAGGAAGAT, the binding signal (log2 normalized intensity) came out at 2.77.
Turning to ACCCATATCTGACTGATGCTAAAGTCTACA, the binding signal (log2 normalized intensity) stood at 0.98.
In the case of CAGAAACCTCATTGTGATGTGTGCGTTCAT, the binding signal (log2 normalized intensity) is 1.61.
Turning to ACTAAGATTTGACTGGAATGTCAAAGGGAC, the binding signal (log2 normalized intensity) stood at 1.29.
Consider AACTCCAAGATTAGTGGGAAAGCTATTGCT, for which the binding signal (log2 normalized intensity) was -1.07.
The result for CGAGCATGGCCGCTCCGCGAGGTGAGCCAT reads 0.717.
As for GATCAATGAATACATGAGTGATCCTGAAAA, the binding signal (log2 normalized intensity) was -0.515.
The value for TCAGAAATGCATGAGTGACCTTTATCCAGT was 5.05; that for GGAGGAGACTTTGACCTCTGCTAGGTTTGG was 4.76; that for CCTCATTTTTCCTGGATGCCAGGCAAGAGC was 0.346.
For the sequence ACTTAAGTCTCAAAGGTCAGATGACAGAAT, the binding signal (log2 normalized intensity) turned out to be 3.83.
Turning to GGGCAGCTCCGTTTACCTAGAGGCAGGCGT, the binding signal (log2 normalized intensity) is -1.1.
Take TAGAATTGCACTGCAAAGAAGTCAAACTTT: the binding signal (log2 normalized intensity) was determined as 0.602.
GATAACATCTGGACTTTACACAGACCTTTA: the binding signal (log2 normalized intensity) is 3.25.
Regarding ACAGATCAGATATGAGATTCCCAGAGAGCT, the binding signal (log2 normalized intensity) was -1.14.
On to CTGGCTTTCTTTGGAGTCAATCTGCAAAGG, for which the binding signal (log2 normalized intensity) amounted to 1.16.
Turning to ACATGGAATGTCGTGCCCTAATCTCACTCT, the binding signal (log2 normalized intensity) is -1.16.
With ATACTGCAGCTCTGCGTCTTACTAAATGCA, the binding signal (log2 normalized intensity) was -0.924.
On to TGTGTCTTATTTATCTTCACATTCCATCAT, for which the binding signal (log2 normalized intensity) came out at 1.43.
The value for AGATTAATGTCAGCCTGCTCAGGGAGAAGC was -1.16.
Take GCCTCACACCCTCTAGGGTAGATAAGGATG: the binding signal (log2 normalized intensity) is -1.05.
Regarding GATGGGGGTGGGAGGCTGGGAGGAGGGTAA, the binding signal (log2 normalized intensity) was -1.13.
Consider TAGCATGAATTTGGTACCTCCCCCCACACC, for which the binding signal (log2 normalized intensity) was 5.45.
The result for GAAAAGGAAATATCTTCGTATAGAAACAAG reads -0.946.
As for CTGAGAAGATGAAAGACGAAAGGGACTTTG, the binding signal (log2 normalized intensity) was 1.96.
CCCAGATGGAGTGCTCTGAACCGTGTACCT: the binding signal (log2 normalized intensity) is 1.61.
For the sequence GGGACTGTGCAGACAAGATATGAGGCCAGT, the binding signal (log2 normalized intensity) was -1.1.
With TCCCATCTTGCAGCTGACCCTGGCCGGAAA, the binding signal (log2 normalized intensity) was 1.07.
For the sequence GCAGGCTTAGCTGGGCTAGCACCTGTGGAT, the binding signal (log2 normalized intensity) was -1.19.
The result for TACTTTGCTCTCAGCACACTCTGGTACCAT reads -0.832; that for ACAGAAGGCAGAGATTTGAGTCAACCCAAC, -1.04.
As for TCTCACATCTGATAGCTAAACCAGATACGT, the binding signal (log2 normalized intensity) is -1.11.
Take CAGCGACTGAGCTGAGGTTAGAATCCTTAT: the binding signal (log2 normalized intensity) is -1.12.
The value for GGTGGTGACAAAGACAGATTAGATCTGCGT was -1.08; that for CTTGGAGGCGGCGGCTCCGGGAGCTGGCGG was -1.11; that for CCAGGTCGGGCCGGAGAGGCTTATTCCGTA was -1.2.
Turning to TTGATGGTTAAAGTCCAATCTTCTGGCCCC, the binding signal (log2 normalized intensity) worked out at 4.27.
For the sequence TATGGACCTTGTCCCTGGATTGTGTTGCAC, the binding signal (log2 normalized intensity) was found to be 2.64.
GGAGGACTTTGGAATGGCAGTGCTTGTCCA: the binding signal (log2 normalized intensity) came out at 1.83.
As to TCTGGTGCCAAGGAGCCTCTGCAACCTTTG, the binding signal (log2 normalized intensity) was determined as 2.46.
Regarding GTCAAAAATTTGTGTGTAACATTTGACTTC, the binding signal (log2 normalized intensity) worked out at 1.32.
For GCGGCTGCAAATTCTGCATTTTTCTTTCCT, the binding signal (log2 normalized intensity) is -0.928.
The result for TGGGCCCCACAGTGCATCTGATAAGGTTGT reads 0.921; that for GACAAAGGTCATTCATGTGCAGGTTGGAAT, 2.77; that for CCCCTTGGCTACATGTTTGTCTTTCAAACA, 1.05.
Take TGTGAATGAAAGAGACTAGTATGTAAATAA: the binding signal (log2 normalized intensity) came to 0.38.
Take CCCCACCCCCACTGCCTGACCCCAAGTAAT: the binding signal (log2 normalized intensity) stood at 6.98.
In the case of TGCTTCAGCAAAACCAGTTTGTCTGATCTT, the binding signal (log2 normalized intensity) was -0.657.
The result for CAAGGTCCCATGGCTAATCTGTGACTGAGC reads -1.2; that for AAGGGGAAATATGTAGGTTTGGGGAACTTT, 0.936; that for GTGATCAGAGATCTAGGTGAGGGATGAGGA, -1.09.
In the case of CAAAGGACAATAATGAATAAGCACGTTAGA, the binding signal (log2 normalized intensity) was -1.16.
As to AGCAGAAAATCCAGGTGCAGTGTGAGAGGA, the binding signal (log2 normalized intensity) is -0.963.
The value for TGATTGCTGTCTACTCTGGGGGTCAGCAAT was 2.31.
For TCTCTCTTAAGAACGCTTGTGATTACACTG, the binding signal (log2 normalized intensity) was -0.764.
As to GTGACTCACCTTTGCTCTGATCTTTGACTT, the binding signal (log2 normalized intensity) stood at 3.3.
Consider AACCTGTTCCAAAGTCCACCGTGGTGTAGA, for which the binding signal (log2 normalized intensity) stood at 4.32.
Consider CAATCCAGAAGGCGCTGAACTTTGCCTTGT, for which the binding signal (log2 normalized intensity) stood at 4.39.
On to CCCCACCCCACCCCACTCCACCTACGCTAC, for which the binding signal (log2 normalized intensity) was determined as 5.39.
The value for CATCCCCTAAAACATCAAATACCTCCAAGA was 0.294; that for TGCCATGATAAGCAGTGTGGACTTTTTCCT was 2.84.
The result for ACTGCATGATAGGCCCATCTTCTTATCTGA reads -1.05.
The result for GGAAAACCCGGCGCGGACATAAAATTAAAG reads -1.18; that for CAAAATCAATAAATCACACGAAACAAGTAG, -1.2.
As to CCATGTGCTATTCTGTCTCCTGGAAAGGTT, the binding signal (log2 normalized intensity) came out at 2.07.
For the sequence GGTCAAGTTCAGATCCTGGCCATGCCCCAG, the binding signal (log2 normalized intensity) is -0.0766.
On to CCCTCAGAGCTCAGATGAACTTTGCCTTAG, for which the binding signal (log2 normalized intensity) came to 5.39.
Turning to GAAGACAAGACAAGGAAGTTAAGAGTTCGA, the binding signal (log2 normalized intensity) is -0.867.
Consider TTGCCATTTACATCAAACACTCACTGGGAG, for which the binding signal (log2 normalized intensity) is -0.349.
As for AGGCCCTGCATTAAACAAGAGAGAGTCCAC, the binding signal (log2 normalized intensity) came to 1.81.
Consider GGCCATTTGGTCTGTAGTGTTGCTCAAGTC, for which the binding signal (log2 normalized intensity) is 1.54.
On to ACTTTCAGAGTAACCATGGGGGCTCAGGGC, for which the binding signal (log2 normalized intensity) is -1.02.
In the case of AGAGATCATGGCCGATCGACTAGCGAGGCG, the binding signal (log2 normalized intensity) was -1.16.
The value for TCTAGAAACCAGTGAGAAAATGGTGACCCT was 3.26.
The result for TGCTTTTCTAGAACCAGGAATCCTAGGGAA reads 0.0809.
As for TGATTACCCTTATCTTATCTCCTGCTAAAT, the binding signal (log2 normalized intensity) was -0.667.
As to TTTACTTCCTTTTGTTCCTGCTCTAACACT, the binding signal (log2 normalized intensity) stood at 1.1.
The value for GCTGATGCAGAGGGTGCAAAGTTTTTAAAG was 0.689; that for CTAGGAAACTGACCTTTGCTCATGACTATT was 5.53; that for ACGCCCGGCCAAAGACCACATTCTTTTAGT was -1.13.
Consider ATCAGAGAGTTCAAACTCTGAAGTTGTAAA, for which the binding signal (log2 normalized intensity) came out at 0.644.
For the sequence CCCCTTTGAACTCTGAATAACTGCTTTGTG, the binding signal (log2 normalized intensity) came out at 1.75.
In the case of CAGGCTGCGTTTCAAAGCCAGGACTTTCAG, the binding signal (log2 normalized intensity) was -1.18.
As to TACAGAATTTCTCAGATGCCAGCTAAGATC, the binding signal (log2 normalized intensity) is -1.14.
Turning to TGGTTCCATTGTCCTACAGGACATTAATCA, the binding signal (log2 normalized intensity) amounted to 0.503.
Consider AGTTCCTGTGCAAGCCCCTGACCAAGGGTC, for which the binding signal (log2 normalized intensity) worked out at 3.15.
The value for AAAAACCACAAAAGCCAACAGTACAGCCTT was -1.12.
Turning to TGCATAGCAGAAACATAGAAAGGAGTACAC, the binding signal (log2 normalized intensity) was -0.58.
Take TTCCAGTTACTGGAGGCTGGAGCTCCTGGG: the binding signal (log2 normalized intensity) is -1.18.
